# Measurements: the supplement of paper PMC3334620
# Whole data set: some 33,000 sequences, median “E-score (-0.5 to 0.5)” near -0.021, cut for the highest 2% near 0.32. The list shows a part of the results.
# Biological target: T1, Zap1 (UniProt P47043)
# T1 sequence: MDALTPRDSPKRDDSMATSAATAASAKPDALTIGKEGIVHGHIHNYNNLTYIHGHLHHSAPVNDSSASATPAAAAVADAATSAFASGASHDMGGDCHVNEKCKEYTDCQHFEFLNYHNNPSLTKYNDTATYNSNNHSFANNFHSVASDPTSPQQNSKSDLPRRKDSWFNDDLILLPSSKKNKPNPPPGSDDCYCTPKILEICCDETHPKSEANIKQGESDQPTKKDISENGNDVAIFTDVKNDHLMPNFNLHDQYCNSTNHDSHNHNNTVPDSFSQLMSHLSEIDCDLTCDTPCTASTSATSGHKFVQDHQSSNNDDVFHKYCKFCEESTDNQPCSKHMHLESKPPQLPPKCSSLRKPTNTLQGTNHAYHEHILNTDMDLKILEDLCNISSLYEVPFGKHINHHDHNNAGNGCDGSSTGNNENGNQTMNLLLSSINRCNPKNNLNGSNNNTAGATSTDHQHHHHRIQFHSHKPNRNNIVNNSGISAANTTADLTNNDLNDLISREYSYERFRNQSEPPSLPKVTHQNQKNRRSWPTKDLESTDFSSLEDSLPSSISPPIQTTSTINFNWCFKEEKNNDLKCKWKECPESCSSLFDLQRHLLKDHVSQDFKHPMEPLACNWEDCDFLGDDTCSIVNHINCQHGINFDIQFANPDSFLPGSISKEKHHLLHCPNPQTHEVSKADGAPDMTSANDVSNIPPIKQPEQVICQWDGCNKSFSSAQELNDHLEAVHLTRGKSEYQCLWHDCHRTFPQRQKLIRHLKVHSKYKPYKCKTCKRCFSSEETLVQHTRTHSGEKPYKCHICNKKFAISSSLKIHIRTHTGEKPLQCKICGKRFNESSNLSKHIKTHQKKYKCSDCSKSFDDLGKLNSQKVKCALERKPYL
# Assay: PBM E-score (8-mer binding enrichment) (E-score (-0.5 to 0.5)); higher = stronger / more preferred TF binding; most listed sequences are background and not binding sites
# Settings: protein concentration: 200 nM; construct: GST-full length
# Outline: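 Full-length yeast transcription factors or their DNA-binding domains, GST-tagged and expressed with PURExpress, were applied at about 100-200 nM to universal all-10-mer Agilent arrays. These arrays had been made double-stranded by primer extension on fresh or once-stripped slides. Detection used fluorescent anti-GST, normalisation used masliner, and E-scores for ungapped eight-base words pooled with reverse complements came from the Universal PBM Analysis Suite.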
row,Sequence,PBM E-score
1,CACGCCCA,-0.0496
2,AAGGAATA,0.113
3,CGGCGGGA,-0.176
4,ATACGCCA,-0.166
5,ACATCTCT,-0.146
6,AACATTTG,-0.122
7,CTAGCTTC,-0.267
8,AGTCGTCA,-0.0746
9,AAAACGCG,0.0266
10,GGCAAAAA,0.14
11,TGGCCAAA,-0.0636
12,ACCACCTC,0.112
13,CCCTACAA,0.33
14,GGAGGGTA,0.346
15,CGCCAGTA,-0.316
16,AAGGTCCG,0.0328
17,GATCGTAC,-0.069
18,GATTCGCC,-0.195
19,CAGTTTCC,-0.042
20,AAGCAGGT,0.191
21,CGGCATCC,-0.101
22,ACCGGAGC,-0.0867
23,CGAATACG,-0.0272
24,CAACCTCG,0.286
25,TAGAGGGA,-0.119

row,Sequence,PBM E-score
1,CGTATACC,0.0534
2,CTGTAAAC,0.16
3,ACCTCCCT,-0.0563
4,CTTCCCTC,-0.107
5,ACGCCACA,-0.155
6,AATCCCGC,-0.00031
7,CCAATCTA,0.00747
8,AGTAAGTC,-0.412
9,CTATCTAC,-0.064
10,GCCTGACA,-0.384
11,TGGAGAAA,0.0584
12,TCTGTGCA,-0.0521
13,TACCAACA,0.223
14,AGTCATCA,-0.0593
15,ATCGACTC,-0.101
16,CGTCGCAG,-0.0222
17,AGCCCAAC,-0.0986
18,GGATGGTA,0.0744
19,GGACATTA,0.0786
20,ACGTAACC,0.411
21,CCCGGTGA,-0.0359
22,CAATGATG,-0.101
23,ACTGACCG,0.00494
24,CATCTTGA,-0.0414
25,GGGACGAA,0.0111

row,Sequence,PBM E-score
1,CAGGGCGA,-0.0893
2,ATCTTGAG,-0.0439
3,CTTCCCGA,-0.0237
4,CGTGACAA,-0.0387
5,GGAGATAC,-0.0504
6,AACGCATT,0.0284
7,CCCCTCCC,0.0739
8,AATCAAGA,0.0806
9,TAAAAGTA,0.149
10,ATGGCCCA,0.0132
11,TGATAAAA,0.17
12,GATTTCAA,-0.0393
13,GGCTACCA,0.145
14,AGCCACCT,-0.111
15,ATAGGACG,-0.292
16,ATGATTAG,0.00409
17,CGTTACGA,0.121
18,GGTTCTGA,0.279
19,GCCGTGAC,0.124
20,GCATGCGA,-0.074
21,GGTCACCA,0.261
22,CCGTACTC,-0.185
23,CTATCGAG,-0.00103
24,CTGTGTAC,-0.0289
25,ACCAACAT,0.0968

row,Sequence,PBM E-score
1,AAGCTAAT,0.0587
2,CGTGGGGC,-0.23
3,AGTTATCG,0.182
4,GCCGCCTA,-0.271
5,CAGATCCA,-0.2
6,CAGGTGAA,-0.0882
7,CCAGCGAA,-0.0737
8,CCAAAACC,0.331
9,AGCCAGCC,-0.276
10,GTCAACAA,0.0413
11,ACTGTCTG,-0.0351
12,AAATAGTA,0.0886
13,CGGGGGTA,-0.0836
14,AGTGTGCC,-0.127
15,CCCGAAAA,0.159
16,AATGCTGT,-0.0865
17,CACGCTTA,-0.0534
18,AGGCTAAT,-0.0215
19,CATGTACC,0.0466
20,GCCTGCCA,-0.189
21,TGACCGAA,0.162
22,CATAAGAC,-0.0321
23,ATGGGTAG,0.238
24,AAACCAAA,0.254
25,ACTGTAAA,0.196

row,Sequence,PBM E-score
1,CTTCGATA,0.00101
2,GAACTTGC,-0.195
3,GAGGATTA,-0.00063
4,GCCGACAC,-0.14
5,ACCCGGAG,0.304
6,GCAGCACA,-0.0816
7,GGCAGTAA,0.0175
8,AAAAAGAG,-0.0314
9,ACTTAAGC,-0.241
10,CGGGACGA,-0.0434
11,GGAATGGA,-0.147
12,CCAGGGCC,-0.107
13,AAGTCCAG,0.0214
14,AGACCGAG,0.0347
15,GCGAATAA,0.0462
16,ACGATAAG,-0.0456
17,AATTCTAC,0.104
18,TAATCTCA,0.00156
19,GCTTGCAA,-0.0836
20,ACGGGCTA,-0.26
21,CTTCTGAA,-0.0539
22,AAGTTAAA,0.0966
23,ATAGGTAG,0.172
24,ACATGGCG,-0.221
25,CCGCGACG,-0.0672

row,Sequence,PBM E-score
1,GGGGTATA,0.182
2,CGGCATTC,-0.148
3,GGACAAAA,0.211
4,ATGCACCC,0.00928
5,ACATGGAC,-0.00274
6,AGCCCACA,-0.18
7,CACTCGAC,-0.222
8,AAAGGGCC,0.0873
9,CTGGGAAG,0.0904
10,ATTGGCGC,-0.23
11,CTGAGAAC,0.0895
12,CAAATGTC,-0.185
13,TCATTTCA,0.112
14,CGGAGCAA,-0.179
15,CTCTTACA,-0.0447
16,CGGATCTA,-0.0644
17,ACACGCCA,-0.276
18,ACTCCCGC,-0.16
19,ATGTAAAC,0.0283
20,GTTCGCCA,0.00409
21,GCCCGCAA,0.055
22,AAAGGACT,-0.0983
23,ACGTTTCG,-0.047
24,AAACTAAG,0.178
25,ACAGATAT,0.0689

row,Sequence,PBM E-score
1,CATCAAAA,0.0889
2,GAATAGGA,0.00481
3,ATCATCAT,-0.053
4,TACGAAAA,0.173
5,ACTAAAAC,0.19
6,AGCTGTCC,-0.225
7,AGAGTTTG,-0.0823
8,TACGCCTA,-0.15
9,GGGTGTCA,0.0516
10,CGGCAACA,-0.0972
11,AATAATGC,0.14
12,CCCCGACC,-0.00227
13,AAACCTGC,-0.023
14,CGTCACCA,0.0249
15,TAGAGCGA,-0.2
16,ATCCCCAT,0.0858
17,CCGTACGC,-0.289
18,ATGTATGC,-0.00123
19,AAGCCGGT,0.0436
20,GCGGGAGC,-0.247
21,CAAGGGAG,0.00323
22,TATTGTGA,0.133
